# Reference: PubChem BioAssay AID2451 (National Center for Advancing Translational Sciences (NCATS), 2010)
# Screen size: about 290,000 compounds; about 2,100 (0.72%) were called active. Inconclusive means that the source gave no clear call. Such entries were picked first, then a sample of the others. Calls come from the whole dose curve; as a rule, active = well fitted inhibition curve with a large enough effect; inconclusive = small, poorly fitted or top-dose-only effect, or effect the other way; inactive = flat fitted curve, though single readings scatter. Potencies beside an inconclusive call are fits to weak or partial responses and may not hold up.
# Biological target: Fructose-bisphosphate aldolase (Giardia intestinalis (strain ATCC 50803 / WB clone C6)) (UniProt A8B2U2)
# Test: qHTS Assay for Inhibitors of Fructose-1,6-bisphosphate Aldolase from Giardia Lamblia; note: nearly all actives have a fitted effect of over 55% in size
# Settings: purified Giardia FBPA; series mostly up to 59.6 µM
# In short: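 Giardia FBPA (40 nM reagent) was preincubated 10 min at RT with compound (up to 57.5 uM final), then substrate plus GAPDH/TPI/NAD/arsenate coupling system with diaphorase/resazurin was added; resorufin fluorescence (525/598 nm) was read after 20 min.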
# Potency is the fitted concentration of half-maximal effect; tags give direction and shape of the fitted curve.
# Sequence of UniProt A8B2U2 (A8B2U2 whole entry, looked up): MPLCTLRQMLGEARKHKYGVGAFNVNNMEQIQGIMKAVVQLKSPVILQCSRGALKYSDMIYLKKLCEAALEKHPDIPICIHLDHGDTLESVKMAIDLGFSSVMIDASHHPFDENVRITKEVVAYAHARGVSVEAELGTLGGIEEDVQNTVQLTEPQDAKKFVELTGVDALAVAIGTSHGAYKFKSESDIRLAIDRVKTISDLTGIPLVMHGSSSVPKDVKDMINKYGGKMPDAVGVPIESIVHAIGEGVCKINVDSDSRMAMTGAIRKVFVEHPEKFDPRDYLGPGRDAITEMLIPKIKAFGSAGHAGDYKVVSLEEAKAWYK
row,SMILES,Potency
1,Nc1c(C(=O)NCc2ccccc2)c2nc3ccccc3nc2n1CCCN1CCOCC1,"inconclusive: 9.98 µM [inhibitor, partial curve]"
2,O=C(Cn1c(=O)oc2ccccc21)N1CCCCC1,inactive
3,Clc1ccc2nc(CN3CCCc4ccccc43)cn2c1,"inconclusive: 15.8 µM [inhibitor, partial curve]"
4,C/C(=N\NC(N)=S)C12CC3CC(CC(C3)C1)C2,inactive
5,CC(C)N1CC=C2C(C#N)=C(N)C(C#N)(C#N)[C@H](c3ccoc3)[C@H]2C1,"inconclusive: 14.1 µM [inhibitor, partial curve]"
6,N#Cc1c(N)sc(=S)c2c1CCCC2,active: 17.7 µM
7,CN(C)CC(CCC(CN(C)C)C(=O)c1ccccc1)C(=O)c1ccccc1 (centres undefined),inactive
8,OC(CNC1CCCCCC1)COc1cccc2ccccc12 (centres undefined),"inconclusive: 12.6 µM [inhibitor, partial curve]"
9,CC(=O)Nc1ccc(C(=O)CSc2nnnn2C)cc1,inactive
10,CC(=O)c1cccc(NC(=O)CCCSc2ccccc2)c1,inactive
11,CN(Cc1ccccc1)S(=O)(=O)c1cccc2cccnc12,"inconclusive: 17.7 µM [inhibitor, single point]"
12,O=C(CN1CCCC(O)C1)N1c2ccccc2Sc2ccc(C(F)(F)F)cc21 (centres undefined),inactive
13,CNCc1c(OCc2ccccc2)ccc2ccccc12,"inconclusive: 28.2 µM [inhibitor, partial curve]"
14,Oc1ccc(N=Nc2nccs2)c(O)c1,"inconclusive: 5 µM [inhibitor, full curve]"
15,CCOc1ccc2c(c1)C(=NNC(=O)c1ccncc1)c1cc(OCC)ccc1-2,"inconclusive: 17.7 µM [activator, partial curve]"
16,Clc1ccc(OCc2nnc(-c3ccccc3Br)o2)cc1,inactive
17,COc1ccc(S(=O)(=O)Nc2cc3[nH]c(=O)oc3cc2C)cc1,inactive
18,N#CC1=C2SCN(Cc3ccccc3)CN2C(=O)CC1c1ccc2c(c1)OCO2 (centres undefined),active: 0.889 µM
19,O=C(O)c1ccccc1N/C=C\[N+](=O)[O-],"inconclusive: 28.1 µM [inhibitor, single point]"
20,NC(=O)c1c(N)sc2c1CCCC2,"inconclusive: 15.8 µM [inhibitor, partial curve]"
21,O=C(/C=C/c1cccs1)Nc1nccs1,inactive
22,CCn1cc(CN(C)S(=O)(=O)c2cccc([N+](=O)[O-])c2)cn1,inactive
23,COc1cc(OC)cc(C(=O)NC(=S)N2CCCCC2c2cccnc2)c1 (centres undefined),"inconclusive: 15.8 µM [inhibitor, partial curve, poor fit]"
24,O=C(c1ccco1)n1c(=S)nc2ccccn21,"inconclusive: 19.9 µM [activator, single point]"
